Source: PMC6602471
This is one part of the list. At the low end of the ranking the order means little.

target: T1, ELK1 (UniProt P19419); assay: custom PBM; details: custom protein-binding microarray; buffer, salt, pH and temperature not stated; high values mean tight binding; double strand, one strand shown
T1 sequence: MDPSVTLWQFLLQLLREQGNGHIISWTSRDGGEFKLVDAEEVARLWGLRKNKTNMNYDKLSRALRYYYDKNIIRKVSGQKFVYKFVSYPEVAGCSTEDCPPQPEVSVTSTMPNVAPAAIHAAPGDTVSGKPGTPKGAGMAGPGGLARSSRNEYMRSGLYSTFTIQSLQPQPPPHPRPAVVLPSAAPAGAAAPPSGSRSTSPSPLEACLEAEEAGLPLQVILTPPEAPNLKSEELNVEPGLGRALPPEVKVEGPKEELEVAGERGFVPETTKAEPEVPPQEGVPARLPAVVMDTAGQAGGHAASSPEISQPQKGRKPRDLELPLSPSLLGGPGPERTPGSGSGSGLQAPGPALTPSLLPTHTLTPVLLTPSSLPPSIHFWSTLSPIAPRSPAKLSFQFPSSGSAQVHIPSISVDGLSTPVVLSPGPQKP

| Sequence | binding signal (log fluorescence intensity) |
| --- | --- |
| TCCGGCTACCAGCTCCACCCACTACAGGCCTTGTAGGTCTTGATTCGCTTGACGCTGCTG | 8.83 |
| TGTCGGGTAACGGAATGTAGATCACGTGAATGAAAAGTCTTGATTCGCTTGACGCTGCTG | 8.98 |
| CGGAAGTGTCTTAAACGTCGGATATCCGGTTCTTCTGTCTTGATTCGCTTGACGCTGCTG | 12.1 |
| GGAAAAAGGCCCAGGGTAACACTGGAAGTGGGCTTAGTCTTGATTCGCTTGACGCTGCTG | 8.89 |
| GTGTATAGGATCCCATCCAACACACGTATTAAAATGGTCTTGATTCGCTTGACGCTGCTG | 9.05 |
| GTGTATAGGATCCCATCCAACACACGGGTTAAAATGGTCTTGATTCGCTTGACGCTGCTG | 8.95 |
| CACACTTTTTACAGTAATGTAGCACGCGTAACTCCTGTCTTGATTCGCTTGACGCTGCTG | 8.97 |
| GTGTATAGGATCCCATTCAACACACGTGTTAAAATGGTCTTGATTCGCTTGACGCTGCTG | 8.9 |
| TGTCGGGTAAGGGAATGTAGATCACGTGAATGAGAAGTCTTGATTCGCTTGACGCTGCTG | 8.88 |
| TGTCGGGTAAGGGAATGCAGATCACGTGAATGAAAAGTCTTGATTCGCTTGACGCTGCTG | 8.89 |
| GATTAATTTCTGCCCTTATTCGCACGTGCCATCACAGTCTTGATTCGCTTGACGCTGCTG | 8.98 |
| GTCTATAGGATCCCATCCAACACACGTGTTAAAATGGTCTTGATTCGCTTGACGCTGCTG | 8.8 |
| TAAAGAGAAGACGGTTGTGGTAGTTCCGGGTATTAAGTCTTGATTCGCTTGACGCTGCTG | 11 |
| GGGAAAAGGCCCAGGGTAACACCGGAAGTGGGCTTAGTCTTGATTCGCTTGACGCTGCTG | 11.1 |
| CGGAAGTGTCGTAAACGACGGATATCCGGTTCTTCTGTCTTGATTCGCTTGACGCTGCTG | 12.7 |
| CGGAAGTGTCGTAAACGTCGCATATCCGGTTCTTCTGTCTTGATTCGCTTGACGCTGCTG | 11.6 |
| GCTGCTGCGGTGCATACCCCACCGGATGTTACCCCGGTCTTGATTCGCTTGACGCTGCTG | 10.1 |
| GTGTATAGGATCCCATCCAACACACGCGTTAAAATGGTCTTGATTCGCTTGACGCTGCTG | 8.94 |
| TAAAGGGAAGACGGTTGTGGTAGTTCCGGGTAGTAAGTCTTGATTCGCTTGACGCTGCTG | 11.1 |
| GCTGCTGCGGTGGATACCCCACCGGATGTGACCCCGGTCTTGATTCGCTTGACGCTGCTG | 10.4 |
| CACAATTTTTACAGTAATGTAGCACGAGTAACTCCTGTCTTGATTCGCTTGACGCTGCTG | 8.79 |

| Sequence | binding signal (log fluorescence intensity) |
| --- | --- |
| GCTGCTGCGGTGCATACCCCACCGGATTTGACCCCGGTCTTGATTCGCTTGACGCTGCTG | 8.88 |
| GGAAAAAGGCCCAGGGTAACACCGGAAGTAGGCTTAGTCTTGATTCGCTTGACGCTGCTG | 10.7 |
| TGTCGGGTAAGGGATTGTAGATCACGTGAATGAAAAGTCTTGATTCGCTTGACGCTGCTG | 8.83 |
| TGTCGGGTAAGGGAGTGTAGATCACGTGAATGAAAAGTCTTGATTCGCTTGACGCTGCTG | 8.9 |
| CGGAAGTGTCGTAAACGTCGGATATCCGGTTATTCTGTCTTGATTCGCTTGACGCTGCTG | 12.5 |
| CAGCACAGGACTTCTTCCCTGAAGCAATTGATAACCGTCTTGATTCGCTTGACGCTGCTG | 8.97 |
| GTGTATAGGATCCCACCCAACACACGTGTTAAAATGGTCTTGATTCGCTTGACGCTGCTG | 8.85 |
| GCTGCTGCGGCGCATACCCCACCGGATGTGACCCCGGTCTTGATTCGCTTGACGCTGCTG | 10.2 |
| CGGTAGTGTCGTAAACGTCGGATATCCGGTTCTTCTGTCTTGATTCGCTTGACGCTGCTG | 12.5 |
| CACCATTTTTACAGTAATGTAGCACGCGTAACTCCTGTCTTGATTCGCTTGACGCTGCTG | 8.83 |
| GTGTATAGGATCCCATCCAACACGCGTGTTAAAATGGTCTTGATTCGCTTGACGCTGCTG | 8.9 |
| CGGAAGTGACGTAAACGTCGGATATCCGGTTCTTCTGTCTTGATTCGCTTGACGCTGCTG | 12.3 |
| CGGAAGTGTCGTAAACGTCGGAGATCCGGTTCTTCTGTCTTGATTCGCTTGACGCTGCTG | 10.8 |
| CGGAAGTGTCGTAAACGTCGGATATCCGGTTCTACTGTCTTGATTCGCTTGACGCTGCTG | 12.4 |
| GATGAATTTCTGCCCTTATTCGCACGTGCCATAACAGTCTTGATTCGCTTGACGCTGCTG | 8.9 |
| GTGTATAGGATCCCATCCAACACACGTTTTAAAATGGTCTTGATTCGCTTGACGCTGCTG | 8.88 |
| CTGGGACTTGACCCAACTCGGCCACGTGGGTCGTTTGTCTTGATTCGCTTGACGCTGCTG | 8.96 |
| TGTCGGGTAAGGGAATGTAGATGACGTGAATGAAAAGTCTTGATTCGCTTGACGCTGCTG | 8.95 |
| GGAAAAAGGCCCAGGGTAACACCGGAAGTGGCCTTAGTCTTGATTCGCTTGACGCTGCTG | 10.9 |
| CTGGGACTTGACCCAGCTCTGCCACGTGGGTCGTTTGTCTTGATTCGCTTGACGCTGCTG | 8.97 |
| CACAATTTTTACAGTAATGCAGCACGCGTAACTCCTGTCTTGATTCGCTTGACGCTGCTG | 8.91 |

| Sequence | binding signal (log fluorescence intensity) |
| --- | --- |
| CACAATTTTTCCAGTAATGTAGCACGCGTAACTCCTGTCTTGATTCGCTTGACGCTGCTG | 8.84 |
| CGGAAGTGTCGTAAACGTCGGACATCCGGTTCTTCTGTCTTGATTCGCTTGACGCTGCTG | 12.4 |
| TACTGACTTATATATGCGAATGCACATGAATAGATCGTCTTGATTCGCTTGACGCTGCTG | 8.94 |
| TCCGGCTACCAGCTCCACCCACTTCAGGCCTTCTAGGTCTTGATTCGCTTGACGCTGCTG | 8.85 |
| GATTAATTTCTGCCCTTATTCGCACGTGCCATAACAGTCTTGATTCGCTTGACGCTGCTG | 8.92 |
| CTGGGACTTGACCCAACTCTGCCGCGTGGGTCGTTTGTCTTGATTCGCTTGACGCTGCTG | 8.91 |
| CGGAAGTGTCGTAAACGTCGGATATGCGGTTCTTCTGTCTTGATTCGCTTGACGCTGCTG | 9.16 |
| GCTGCTGCGTTGCATACCCCACCGGATGTGACCCCGGTCTTGATTCGCTTGACGCTGCTG | 10.1 |
| TAAAGCGAAGACGGTTGTGGTAGTTCCGGGTATTAAGTCTTGATTCGCTTGACGCTGCTG | 11.1 |
| TCCGGCTACCAGCTCCACCCACTTCAGGCCATGTAGGTCTTGATTCGCTTGACGCTGCTG | 8.89 |
| TACTGACTTATATATGCGAATGCACATGAATAGGCCGTCTTGATTCGCTTGACGCTGCTG | 8.83 |
| TCCGTCTACCAGCTCCACCCACTTCAGGCCTTGTAGGTCTTGATTCGCTTGACGCTGCTG | 8.79 |
| GATTGATTTCTGCCCTTATTCGCACGTGCCATAACAGTCTTGATTCGCTTGACGCTGCTG | 8.95 |
| CTGGGACTTGACCCAACTCTGCCACGTGGGTCGTTTGTCTTGATTCGCTTGACGCTGCTG | 8.87 |
| GGAAAAAGGCCCAGGGTAAAACCGGAAGTGGGCTTAGTCTTGATTCGCTTGACGCTGCTG | 11 |
| TAAAGGGAAGAGGGTTGTGGTAGTTCCGGGTATTAAGTCTTGATTCGCTTGACGCTGCTG | 11.1 |
| GCTGCTGCGGTGCATACCCTACCGGATGTGACCCCGGTCTTGATTCGCTTGACGCTGCTG | 10.1 |
| TGTCGGGTAAGGGAATGTAGATCTCGTGAATGAAAAGTCTTGATTCGCTTGACGCTGCTG | 8.82 |
| GGAAAAAGGCCCAGGGTAACACCGGAACTGGGCTTAGTCTTGATTCGCTTGACGCTGCTG | 10.1 |
| TCCGGCTACCAGCTCCACCCACTTCAGGCCTTGTAAGTCTTGATTCGCTTGACGCTGCTG | 8.86 |
| TAAAGGGAAGACGGTCGTGGTAGTTCCGGGTATTAAGTCTTGATTCGCTTGACGCTGCTG | 11.3 |

| Sequence | binding signal (log fluorescence intensity) |
| --- | --- |
| GATTAATTTCTGCCCTTATTCTCACGTGCCATAACAGTCTTGATTCGCTTGACGCTGCTG | 8.84 |
| CACAATTTTTACAGTAATGTCGCACGCGTAACTCCTGTCTTGATTCGCTTGACGCTGCTG | 8.88 |
| GACAATTTTTACAGTAATGTAGCACGCGTAACTCCTGTCTTGATTCGCTTGACGCTGCTG | 8.87 |
| TACTGACTTATATATGCGAATGCACATGAATAGCCCGTCTTGATTCGCTTGACGCTGCTG | 8.94 |
| TACTGACTGATATATGCGAATGCACATGAATAGACCGTCTTGATTCGCTTGACGCTGCTG | 9.04 |
| GCTGCTGCGGTGCATACCCCGCCGGATGTGACCCCGGTCTTGATTCGCTTGACGCTGCTG | 10.5 |
| TGTCGGGTAAGGGAATGTAGATCACGTGAAAGAAAAGTCTTGATTCGCTTGACGCTGCTG | 8.82 |
| GTGTATAGGATCCCATCCAACACACGTGTTGAAATGGTCTTGATTCGCTTGACGCTGCTG | 8.88 |
| GGAAAAAGGCCCTGGGTAACACCGGAAGTGGGCTTAGTCTTGATTCGCTTGACGCTGCTG | 11.1 |
| GTGTATAGGATCCCATCCTACACACGTGTTAAAATGGTCTTGATTCGCTTGACGCTGCTG | 8.97 |
| CTGGGACTTGACCCAACTCTGCCACGGGGGTCGTTTGTCTTGATTCGCTTGACGCTGCTG | 8.9 |
| CTGGGACTTGACCCAACTCTGCCACGTGGGTCGATTGTCTTGATTCGCTTGACGCTGCTG | 9 |
| CGGAAGTGTCGTAAACGTCGGATATCGGGTTCTTCTGTCTTGATTCGCTTGACGCTGCTG | 9.06 |
| GGAAAAAGGCCCAGGGTAACACCGGAAGTGGGCTGAGTCTTGATTCGCTTGACGCTGCTG | 10.9 |
| CTGGGGCTTGACCCAACTCTGCCACGTGGGTCGTTTGTCTTGATTCGCTTGACGCTGCTG | 8.81 |
| TACTGACTTATATATGAGAATGCACATGAATAGACCGTCTTGATTCGCTTGACGCTGCTG | 8.84 |
| GCTGCTGCGGTGCATATCCCACCGGATGTGACCCCGGTCTTGATTCGCTTGACGCTGCTG | 10.2 |
| GATAAATTTCTGCCCTTATTCGCACGTGCCATAACAGTCTTGATTCGCTTGACGCTGCTG | 8.77 |
